“And” between values parts separate entries of the source, which are not always exact repeats. Equal values may be shown once. The source gives many values for each of these; only a part stands here.
System: Pol I transcription
Test: Inhibition of Pol I transcription: 47S precursor rRNA levels by quantitative RT-PCR after 1 h treatment
Format: cell-based, human
Details: individual replicates
Method: Fig. 1 Sensitivity of ovarian cancer (OVCA) cell lines to CX-5461. a CX-5461 doses that induce 50% growth inhibition (GI50) at 48 hours. Error bars represent mean ± standard deviation (SD). Asterisks denote mutated TP53 status. […] Information regarding each cell lines source, mean G1_50 values, SD and N values are outlined in Supplementary Table 1. […] Statistical analysis was performed using a two-sided Mann–Whitney test. Error bars represent mean ± SD. c Baseline rDNA transcription rates of OVCA cell lines (listed in (d)), as determined by quantitative real-time PCR (qRT-PCR) analysis using primers specific to the external transcribed spacer 5’ETS (+413–521 bp) relative to the transcription start site (TSS). Expression levels in each cell line were normalised to Vimentin mRNA and expressed as fold change relative to TOV112D cells. Each dot represents the mean value of n = 3 biologically independent experiments per cell line (Individual data points are provided in Supplementary Data 4). Error bars represent mean ± SD. Statistical analysis was performed using a two-tailed unpaired t test. d Dose-response curves of 47S precursor rRNA levels measured by quantitative RT-PCR. OVCA cell lines were treated with vehicle or increasing drug concentrations of CX-5461 (0.001, 0.01, 0.03, 0.1, 0.3, 1 and 3 μM) for 1 h before RNA was harvested. Expression levels were normalised to Vimentin mRNA and expressed as fold change relative to vehicle-treated controls. Shown are the mean of n = 3 independent biological experiments for each cell line. (Individual data points are provided in Supplementary Data 4). e The mean inhibitory concentration values that led to 50% transcription inhibition (IC50) (of n = 3 biologically independent experiments for each cell line) from D are presented (Individual data points are provided in Supplementary Data 4). Error bars represent mean ± SD. Statistical analysis was performed using a two-sided Mann–Whitney test.
For Reverse-transcription qPCR analysis, cells were lysed, RNA extracted, and first-strand cDNA synthesized using random hexamer primers (Promega, C1181) and Superscript III (Invitrogen,18080044). Quantitative PCR (qPCR) was performed in duplicate using the FAST SYBR Green dye (Applied Biosystems, 4385610) on the StepOnePlus real-time PCR system (Applied Biosystems). Primer sequences are listed in (Supplementary Table 3).
Dose-response curves of 4 7S precursor rRNA levels (Figure 1D) measured by quantitative RT-PCR after 1h treatment. Expression levels
were normalised to Vimentin mRNA and expressed as fold change relative to vehicle-treated controls.
IC50 doses (Figure 1E) were determined from dose response curves in Figure 1D
using GraphPad Prism version 8.

Cc1cnc(CNC(=O)c2c(=O)c3ccc(N4CCCN(C)CC4)nc3n3c2sc2ccccc23)cn1 [CX-5461]
47S precursor rRNA level, fold change relative to vehicle-treated controls (2008, CX-5461 0.00000001 M): 1.25 and 0.8749 and 0.5461
47S precursor rRNA level, fold change relative to vehicle-treated controls (2008, CX-5461 0.00000003 M): 1.218 and 0.7539 and 0.7017
47S precursor rRNA level, fold change relative to vehicle-treated controls (2008, CX-5461 0.0000001 M): 0.3766 and 0.4551 and 0.3116
47S precursor rRNA level, fold change relative to vehicle-treated controls (2008, CX-5461 0.0000003 M): 0.3413 and 0.1927 and 0.2865
47S precursor rRNA level, fold change relative to vehicle-treated controls (2008, CX-5461 0.000001 M): 0.126 and 0.1434 and 0.2615
47S precursor rRNA level, fold change relative to vehicle-treated controls (2008, CX-5461 0.000003 M): 0.1693 and 0.1357 and 0.1227
47S precursor rRNA level, fold change relative to vehicle-treated controls (2008, CX-5461 1E-09 M): 0.766 and 1.143 and 0.9219
47S precursor rRNA level, fold change relative to vehicle-treated controls (COLO704, CX-5461 0.00000001 M): 1.588 and 1.201 and 0.9746
47S precursor rRNA level, fold change relative to vehicle-treated controls (COLO704, CX-5461 0.00000003 M): 1.145 and 1.011 and 0.8795
47S precursor rRNA level, fold change relative to vehicle-treated controls (COLO704, CX-5461 0.0000001 M): 1.046 and 0.7198 and 0.4937
47S precursor rRNA level, fold change relative to vehicle-treated controls (COLO704, CX-5461 0.0000003 M): 0.543 and 0.394 and 0.1851
47S precursor rRNA level, fold change relative to vehicle-treated controls (COLO704, CX-5461 0.000001 M): 0.1904 and 0.2302 and 0.15
47S precursor rRNA level, fold change relative to vehicle-treated controls (COLO704, CX-5461 0.000003 M): 0.2758 and 0.2069 and 0.158
47S precursor rRNA level, fold change relative to vehicle-treated controls (COLO704, CX-5461 1E-09 M): 1.389 and 1.175 and 0.9568
47S precursor rRNA level, fold change relative to vehicle-treated controls (ES2, CX-5461 0.00000001 M): 1.444 and 0.8594 and 1.111
47S precursor rRNA level, fold change relative to vehicle-treated controls (ES2, CX-5461 0.00000003 M): 1.008 and 0.7338 and 0.7027
47S precursor rRNA level, fold change relative to vehicle-treated controls (ES2, CX-5461 0.0000001 M): 0.3619 and 0.4772 and 0.4706
47S precursor rRNA level, fold change relative to vehicle-treated controls (ES2, CX-5461 0.0000003 M): 0.1013 and 0.1961 and 0.2168
47S precursor rRNA level, fold change relative to vehicle-treated controls (ES2, CX-5461 0.000001 M): 0.06644 and 0.07582 and 0.1269
47S precursor rRNA level, fold change relative to vehicle-treated controls (ES2, CX-5461 0.000003 M): 0.06957 and 0.08958 and 0.2275
47S precursor rRNA level, fold change relative to vehicle-treated controls (ES2, CX-5461 1E-09 M): 1.154 and 0.9992 and 1.133
47S precursor rRNA level, fold change relative to vehicle-treated controls (IGROV1, CX-5461 0.00000001 M): 0.8496 and 0.8934 and 0.8387
47S precursor rRNA level, fold change relative to vehicle-treated controls (IGROV1, CX-5461 0.00000003 M): 0.4119 and 0.4259 and 0.6157
47S precursor rRNA level, fold change relative to vehicle-treated controls (IGROV1, CX-5461 0.0000001 M): 0.2872 and 0.5394 and 0.677
47S precursor rRNA level, fold change relative to vehicle-treated controls (IGROV1, CX-5461 0.0000003 M): 0.05697 and 0.2582 and 0.3609
47S precursor rRNA level, fold change relative to vehicle-treated controls (IGROV1, CX-5461 0.000001 M): 0.1021 and 0.1132 and 0.1982
47S precursor rRNA level, fold change relative to vehicle-treated controls (IGROV1, CX-5461 0.000003 M): 0.08732 and 0.1037 and 0.1488
47S precursor rRNA level, fold change relative to vehicle-treated controls (IGROV1, CX-5461 1E-09 M): 0.6477 and 0.957 and 1.1
47S precursor rRNA level, fold change relative to vehicle-treated controls (JHOM1, CX-5461 0.00000001 M): 1.161 and 1.172 and 1.101
47S precursor rRNA level, fold change relative to vehicle-treated controls (JHOM1, CX-5461 0.00000003 M): 0.8692 and 1.051 and 0.8577
47S precursor rRNA level, fold change relative to vehicle-treated controls (JHOM1, CX-5461 0.0000001 M): 0.6535 and 0.9882 and 0.8497
47S precursor rRNA level, fold change relative to vehicle-treated controls (JHOM1, CX-5461 0.0000003 M): 0.4896 and 0.5342 and 0.5547
47S precursor rRNA level, fold change relative to vehicle-treated controls (JHOM1, CX-5461 0.000001 M): 0.2376 and 0.3036 and 0.2843
47S precursor rRNA level, fold change relative to vehicle-treated controls (JHOM1, CX-5461 0.000003 M): 0.1492 and 0.09725 and 0.07588
47S precursor rRNA level, fold change relative to vehicle-treated controls (JHOM1, CX-5461 1E-09 M): 0.9272 and 0.955 and 0.9965
47S precursor rRNA level, fold change relative to vehicle-treated controls (Kuramochi, CX-5461 0.00000001 M): 0.7271 and 1.527 and 1.169
47S precursor rRNA level, fold change relative to vehicle-treated controls (Kuramochi, CX-5461 0.00000003 M): 0.6776 and 1.072 and 0.895
47S precursor rRNA level, fold change relative to vehicle-treated controls (Kuramochi, CX-5461 0.0000001 M): 0.4643 and 0.6229 and 0.6436
47S precursor rRNA level, fold change relative to vehicle-treated controls (Kuramochi, CX-5461 0.0000003 M): 0.203 and 0.3708 and 0.2892
47S precursor rRNA level, fold change relative to vehicle-treated controls (Kuramochi, CX-5461 0.000001 M): 0.1284 and 0.2771 and 0.273
47S precursor rRNA level, fold change relative to vehicle-treated controls (Kuramochi, CX-5461 0.000003 M): 0.1269 and 0.4904 and 0.2868
47S precursor rRNA level, fold change relative to vehicle-treated controls (Kuramochi, CX-5461 1E-09 M): 0.6891 and 1.454 and 1.172
47S precursor rRNA level, fold change relative to vehicle-treated controls (OV90, CX-5461 0.00000001 M): 1.369 and 2.91 and 2.34
47S precursor rRNA level, fold change relative to vehicle-treated controls (OV90, CX-5461 0.00000003 M): 1.406 and 3.108 and 3.035
47S precursor rRNA level, fold change relative to vehicle-treated controls (OV90, CX-5461 0.0000001 M): 0.9052 and 2.42 and 1.655
47S precursor rRNA level, fold change relative to vehicle-treated controls (OV90, CX-5461 0.0000003 M): 0.5867 and 0.7303 and 0.7716
47S precursor rRNA level, fold change relative to vehicle-treated controls (OV90, CX-5461 0.000001 M): 0.3213 and 0.81 and 0.7174
47S precursor rRNA level, fold change relative to vehicle-treated controls (OV90, CX-5461 0.000003 M): 0.3469 and 0.4984 and 0.6639
47S precursor rRNA level, fold change relative to vehicle-treated controls (OV90, CX-5461 1E-09 M): 3.225 and 2.768
47S precursor rRNA level, fold change relative to vehicle-treated controls (OVCAR3, CX-5461 0.00000001 M): 0.7439 and 0.6379 and 0.9279
47S precursor rRNA level, fold change relative to vehicle-treated controls (OVCAR3, CX-5461 0.00000003 M): 0.8636 and 0.7649 and 0.9345
47S precursor rRNA level, fold change relative to vehicle-treated controls (OVCAR3, CX-5461 0.0000001 M): 0.4021 and 0.347 and 0.6221
47S precursor rRNA level, fold change relative to vehicle-treated controls (OVCAR3, CX-5461 0.0000003 M): 0.3676 and 0.4664 and 0.3415
47S precursor rRNA level, fold change relative to vehicle-treated controls (OVCAR3, CX-5461 0.000001 M): 0.1746 and 0.1458 and 0.2499
47S precursor rRNA level, fold change relative to vehicle-treated controls (OVCAR3, CX-5461 0.000003 M): 0.1679 and 0.1179 and 0.2699
47S precursor rRNA level, fold change relative to vehicle-treated controls (OVCAR3, CX-5461 1E-09 M): 1.013 and 0.8328 and 1.023
47S precursor rRNA level, fold change relative to vehicle-treated controls (OVCAR4, CX-5461 0.00000001 M): 1.051 and 0.8553 and 0.8181
47S precursor rRNA level, fold change relative to vehicle-treated controls (OVCAR4, CX-5461 0.00000003 M): 1.218 and 0.953 and 1.234
47S precursor rRNA level, fold change relative to vehicle-treated controls (OVCAR4, CX-5461 0.0000001 M): 0.5426 and 0.5084 and 0.4691
47S precursor rRNA level, fold change relative to vehicle-treated controls (OVCAR4, CX-5461 0.0000003 M): 0.1516 and 0.1261 and 0.1408
47S precursor rRNA level, fold change relative to vehicle-treated controls (OVCAR4, CX-5461 0.000001 M): 0.1019 and 0.07958 and 0.07862
47S precursor rRNA level, fold change relative to vehicle-treated controls (OVCAR4, CX-5461 0.000003 M): 0.09734 and 0.07398 and 0.1166
47S precursor rRNA level, fold change relative to vehicle-treated controls (OVCAR4, CX-5461 1E-09 M): 0.8151 and 0.6926 and 0.9247
47S precursor rRNA level, fold change relative to vehicle-treated controls (OVCAR8, CX-5461 0.00000001 M): 1.156 and 0.9594 and 0.9199
47S precursor rRNA level, fold change relative to vehicle-treated controls (OVCAR8, CX-5461 0.00000003 M): 1 and 0.9185 and 0.8175
47S precursor rRNA level, fold change relative to vehicle-treated controls (OVCAR8, CX-5461 0.0000001 M): 0.5891 and 0.5889 and 0.5184
47S precursor rRNA level, fold change relative to vehicle-treated controls (OVCAR8, CX-5461 0.0000003 M): 0.3671 and 0.2018 and 0.2507
47S precursor rRNA level, fold change relative to vehicle-treated controls (OVCAR8, CX-5461 0.000001 M): 0.1509 and 0.1089 and 0.1175
47S precursor rRNA level, fold change relative to vehicle-treated controls (OVCAR8, CX-5461 0.000003 M): 0.09518 and 0.1073 and 0.12
47S precursor rRNA level, fold change relative to vehicle-treated controls (OVCAR8, CX-5461 1E-09 M): 1.162 and 0.9381 and 0.8876
47S precursor rRNA level, fold change relative to vehicle-treated controls (TOV112D, CX-5461 0.00000001 M): 2.075
47S precursor rRNA level, fold change relative to vehicle-treated controls (TOV112D, CX-5461 0.00000003 M): 0.9065 and 1.402
47S precursor rRNA level, fold change relative to vehicle-treated controls (TOV112D, CX-5461 0.0000001 M): 0.7201 and 1.013
47S precursor rRNA level, fold change relative to vehicle-treated controls (TOV112D, CX-5461 0.0000003 M): 0.2911
